PubChem BioAssay AID1347073 (National Center for Advancing Translational Sciences (NCATS), 2019)
Screen size: about 45,000 compounds; about 200 (0.44%) were called active. Inconclusive results (about 7%) are left out. The call rests on the fitted dose curve; in most records, active means well fitted activation curve with a large enough effect; inconclusive means small, poorly fitted or top-dose-only effect; inactive means no such curve, though single readings can be large or run the other way. The list shows a part of the results.

experiment: qHTS of TDP-43 Inhibitors: NCGC Sytravon Library Screen; settings: yeast TDP-43 toxicity rescue, BacTiter-Glo growth, 24 h; series mostly up to 46.1 µM; growth rescue (activation): at the top concentration; further: nearly all actives have a fitted effect of over 55% in size; on growth rescue (activation): 0% is about no effect
Procedure, shortened: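 TDP-43-expressing yeast, pregrown in raffinose, seeded at OD600 0.02 in galactose medium with compound for 24 hr at 30 deg C. Growth read by BacTiter-Glo luminescence, so rescue of toxicity appears as activation.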
Potency means the concentration at half of the fitted maximal effect.

SMILES	growth rescue (activation)	Potency
Cc1csc(NC(=O)c2cc3c(C)nn(Cc4ccccc4Cl)c3s2)n1	inactive: 3.33%	–
CSc1c(CC(=O)Nc2ccccc2)n(Cc2ccccc2)c2ccccc12	inactive: 7.18%	–
CC1CCN(Cc2nnc(-c3cccc(Br)c3)o2)CC1	inactive: -1.16%	–
Brc1c(-c2ccc3c(c2)OCO3)nc2ncccn12	inactive: 24.3%	–
CC(C)COC(=O)c1ccc(N2C(=O)c3ccccc3C2=O)cc1	inactive: 2.23%	–
Cn1c(=O)n(Cc2ccco2)c(=N)c2c3c(sc21)CCCC3	inactive: -2.14%	–
Cc1c(C#N)c(N)nc2c3c(sc12)NC(=O)CC3c1ccc(Cl)cc1 (centres undefined)	inactive: 9.06%	–
COc1ccc(-c2cc(C(=O)OCc3ccccn3)c3ccccc3n2)cc1	inactive: 13.4%	–
O=C(c1ccc(NS(=O)(=O)c2cccs2)cc1)N1CCN(c2ccccc2Cl)CC1	inactive: 3.06%	–
COc1ccc(NC(=O)CS(=O)CC(=O)Nc2ccc(F)cc2F)cc1 (centres undefined)	inactive: 4.32%	–
Cc1cccc(C(=O)Nc2ccc(C(=O)N/N=C/c3ccc(C)o3)cc2)c1	inactive: 0.218%	–
COc1ccc(N(CC(O)CN2CCOCC2)S(=O)(=O)c2ccc(C)cc2)cc1 (centres undefined)	inactive: -11.3%	–
COc1cc(/C=C2/NC(=O)NC2=O)cc(Br)c1OCc1ccccc1	inactive: -11.6%	–
Nc1nc(C23CC4CC(CC(Cl)(C4)C2)C3)cs1	inactive: 8.59%	–
Cc1ccnc(N2CCCC(C(=O)Nc3cccc(C)c3C)C2)n1 (centres undefined)	inactive: 6.77%	–
Cc1ccc(NCc2cccn2-c2nnc(N3CCC(C(=O)NCCc4ccccc4)CC3)s2)cc1	inactive: -11.5%	–
N/C(Cn1cncn1)=N\NC(=O)C(=O)Nc1cccc(C(F)(F)F)c1	inactive: 10.7%	–
COc1ccc(C)cc1NC(=O)c1nc2nc(C)cc(C)n2n1	inactive: 26.3%	–
CCc1ccccc1NC(=O)c1cccc(Oc2ccc([N+](=O)[O-])cc2Cl)c1	inactive: 7.99%	–
CCOC(=O)C1(CCc2ccccc2)CCN(Cc2ccn[nH]2)CC1	inactive: 4.88%	–
O=C1CC(c2ccc(F)cc2)Sc2nc(-c3ccccc3)c(-c3ccccc3)n21 (centres undefined)	inactive: -6.02%	–
COc1cccc(CNC(=O)CCC2CCCN(C(=O)CCc3c(C)noc3C)C2)c1 (centres undefined)	inactive: 0.363%	–
CC1(Cc2ccccc2C#N)C(=O)Nc2ccc(-c3ccccc3)cc21 (centres undefined)	inactive: 16.1%	–
CCOc1ccc(NS(=O)(=O)c2cc(NC(=O)c3ccc(C)cc3)ccc2Cl)cc1	inactive: 11.2%	–
CS(=O)(=O)N(CCc1ccccc1)CC(=O)NCc1ccccc1	inactive: -13.6%	–
O=c1cnnc(Nc2cccc(C(F)(F)F)c2)[nH]1	inactive: 5.35%	–

SMILES	growth rescue (activation)	Potency
Cc1ccc(C2=Nc3ccccc3N=C(c3ccc([N+](=O)[O-])cc3)C2)c(O)c1	inactive: 4.95%	–
COc1ccccc1C(C#N)N1N=C(C)CC1(C)C (centres undefined)	inactive: 3.29%	–
COc1ccc(C2C(C(=O)c3ccco3)=C(O)C(=O)N2CC2CCCO2)c(OC)c1 (centres undefined)	inactive: -5.56%	–
COc1ccc(NS(=O)(=O)c2ccc(NS(=O)(=O)c3cccs3)cc2)c(OC)c1	inactive: 7.7%	–
O=[N+]([O-])c1cccc(/C=N/N2CCN(Cc3ccc(Cl)cc3)CC2)c1	inactive: 3.89%	–
COc1ccccc1C(=O)NC1CCN(C(=O)Nc2ccc(C)cc2)CC1	inactive: 7.6%	–
CCn1c(SCC(=O)N2CCc3ccccc3C2)nc2sc(C)c(C)c2c1=O	inactive: 2.91%	–
Cc1c(C(=O)Oc2ccc(F)cc2)sc2ncn(Cc3cccc(F)c3)c(=O)c12	inactive: 8.89%	–
CC(C)(C)NC(=O)C1CC(=O)OC12CCCCC2 (centres undefined)	inactive: 8.25%	–
CC(=O)Nc1ccc(NC(=O)C2(C)Cc3c(-c4cccc(C(F)(F)F)c4)ccnc3O2)cc1 (centres undefined)	inactive: 8.8%	–
C=CCOc1cccn2c(N(C)C(=O)c3ccc(OC)cc3)c(CC)nc12	inactive: 4.1%	–
COc1ccc2c(c1)c(C(=O)N/N=C/c1ccc(Cl)cc1)c(C)n2C	inactive: -0.612%	–
Cc1cc(C(=O)NNC(=O)c2ccc(Cl)c(S(N)(=O)=O)c2)c(C)o1	inactive: 10.5%	–
COc1ccc(CCNC(=O)CSc2nc(C)cs2)cc1	inactive: -2.7%	–
CCOc1ccc(NC(=O)NCc2cccn2C)cc1	inactive: -10%	–
O=C(COC(=O)CCC(=O)c1cccs1)NCc1cccs1	inactive: 8.96%	–
CCOC(=O)C1(C)CCN1C(=O)c1cccc(C#N)c1 (centres undefined)	inactive: -5.44%	–
CCOC(=O)c1sc(NC(=O)c2ccc(Br)o2)cc1C	inactive: 26.2%	–
CCCn1c(CCl)nc2cc(S(=O)(=O)N3CCOCC3)ccc21	inactive: -1.6%	–
CCOC(=O)N1CCN(C(=O)c2c(-c3ccccc3Cl)noc2C)CC1	inactive: -12.8%	–
CN(C)C(CNC(=O)C1CCN(S(=O)(=O)c2cccc(C(F)(F)F)c2)CC1)c1ccccc1 (centres undefined)	inactive: -0.659%	–
CCOC(=O)C1(C)CCCN(C(=O)c2ccc(OC)cc2)C1 (centres undefined)	inactive: 1.97%	–
COc1ccc(-c2cc(CNS(=O)(=O)c3ccc(F)cc3)on2)cc1	inactive: 19.3%	–
O=C(O)c1ccc(CN2C[C@@H](CO)O[C@@H](n3cnc4c(N5CCOCC5)ncnc43)C2)cc1	inactive: -3.35%	–
CCOc1cccc(C2NC(=S)NC(C)=C2C(=O)Nc2ccccc2)c1 (centres undefined)	inactive: 18.6%	–
O=C(COc1cccc2cccnc12)N/N=C/c1ccccc1O	inactive: 13.3%	–

SMILES	growth rescue (activation)	Potency
CCn1nc(C)c(CN2CCc3c([nH]c4ccccc34)C2c2ccc(F)c(OC)c2)c1C (centres undefined)	inactive: 14.7%	–
CCn1c(SCC(=O)c2ccccc2)nc2sc3c(c2c1=O)CCN(C)C3	inactive: 6.07%	–
COC(=O)c1ccc(/C=N/NC(=O)C2CC(=O)N(c3ccc(OC)cc3)C2)cc1 (centres undefined)	inactive: -3.28%	–
O=C(NCCN1CCOCC1)C1CC(=O)N(c2ccc(F)cc2)C1 (centres undefined)	inactive: -15.1%	–
Cc1ccc(NS(=O)(=O)c2ccc(Br)s2)nc1	inactive: 17.1%	–
CC(C)(C)C1CCC(C(=O)OCC(=O)Nc2ccc3[nH]c(=O)[nH]c3c2)CC1 (centres undefined)	inactive: 18.5%	–
O=C(CSc1nnc(COc2ccccc2)o1)N1CCCCC1	inactive: 9.77%	–
O=C(Nc1nccs1)c1cc2c(s1)CCCCC2	–	active: 7.08 µM
CCOC(=O)N1CCN(S(=O)(=O)c2ccc3c(c2)SCC(=O)N3)CC1	inactive: 8.48%	–
Cc1ccc2[nH]c3c(N4CCc5ccccc5C4)ncnc3c2c1	inactive: 30.2%	–
O=C(CCNC(=O)c1ccccc1)Nc1ccc(Cl)c(S(=O)(=O)N2CCCCC2)c1	inactive: 3.88%	–
O=C(COC(=O)c1ccccc1NS(=O)(=O)c1ccc(Cl)cc1)NCc1ccccc1	inactive: -11.8%	–
O=C(Cn1cc2c(n1)CCCCC2)Nc1ccccc1Cl	inactive: 24.5%	–
Cc1cccc(N2CCN(c3ccc(N4C(=O)CCCC4=O)cc3[N+](=O)[O-])CC2)c1C	inactive: 29%	–
CS(=O)(=O)Nc1ccc(C(=O)Nc2ccc(S(=O)(=O)Nc3nccs3)cc2)cc1	inactive: -1.06%	–
COc1cc(/C=C(\C#N)c2nc3ccccc3[nH]2)ccc1OC(=O)c1ccco1	inactive: -6.57%	–
O=C(NCCCNc1ccc(C(F)(F)F)cc1[N+](=O)[O-])c1ccc(F)cc1	inactive: -1.39%	–
C/C(=N\NC(=O)c1ccncc1)c1cc2ccccc2o1	inactive: -0.153%	–
CC(C)Cc1ccc(CN2CCCC(NC(=O)CCN3CCOCC3)C2)cc1 (centres undefined)	inactive: 16.9%	–
O=C(CN1CCN(c2ccccc2O)CC1)NNC(=O)c1ccc(Cl)cc1	inactive: -3.47%	–
CCc1nc2c(OCC(=O)c3ccc(Cl)cc3Cl)cccn2c1N(C=O)Cc1ccc(OC)cc1	inactive: 9.71%	–
Cc1cnc(CN(C)Cc2c(C(=O)N3CCCCCCC3)nc3ccc(Cl)cn23)[nH]1	inactive: 10.8%	–
COc1cccc(N2CCN(CC(=O)Nc3ccc(SC(F)F)cc3)CC2)c1	inactive: 11.3%	–
CC(C)(C)c1cc(NC(=O)Nc2ccc(Br)cc2Cl)no1	inactive: 12.1%	–
COc1cccc(CNC(=O)COC(=O)c2c(NC(C)=O)sc(C)c2C)c1	inactive: -55.1%	–
COc1ccc(/C=C(/NC(=O)c2ccc(OC)c(OC)c2)C(=O)NCCCn2ccnc2)cc1	inactive: 7.39%	–

SMILES	growth rescue (activation)	Potency
COc1ccc(NC(=O)C2CCC2)cc1S(=O)(=O)Nc1cc(C)ccc1Br	inactive: 16%	–
COCCCN1C(=O)c2ccc(C(=O)OCC(=O)NCCc3ccccc3)cc2C1=O	inactive: 12.5%	–
CCOc1ccc(N2C(=O)c3ccc(C(=O)OCC(=O)N(CC)C4CCS(=O)(=O)C4)cc3C2=O)cc1 (centres undefined)	inactive: 15%	–
CCn1cc(C(=O)N2CCN(c3ccccn3)CC2)c(=O)c2cc(S(=O)(=O)N3CCC(C)CC3)ccc21	inactive: 10.6%	–
N#Cc1cn(CCOC(=O)c2cccc(C(F)(F)F)c2)c(=O)[nH]c1=O	inactive: -5.4%	–
CC(=O)C1=C(O)C(=O)N(Cc2ccco2)C1c1ccccc1F (centres undefined)	inactive: -7.47%	–
NS(=O)(=O)c1cccc(NC(=O)c2cc(=O)c3ccccc3o2)c1	inactive: 3.78%	–
Nc1nc(-c2cccnc2)nn1C(=O)c1ccc(Cl)cc1	inactive: 1.38%	–
CN1CCN(c2ccc(NC(=O)c3ccc(C#N)cc3F)cc2Cl)CC1	inactive: 2.62%	–
CCCCCCC(=O)Oc1cccc(N2C(=O)C3CCCCC3C2=O)c1 (centres undefined)	inactive: 10.9%	–
CC(=O)c1cccc(NC(=O)CCS(=O)(=O)c2ccc(Br)s2)c1	inactive: -3.93%	–
CCCN(CCC)C(=O)C1CC(=O)OC12CCCCC2 (centres undefined)	inactive: -10.9%	–
COc1ccc(OC)c(CN2CCN(Cc3cc(=O)oc4cc(O)ccc34)CC2)c1	inactive: -7.42%	–
CN(Cc1ccccc1)Cc1nc2scc(-c3ccccc3)c2c(=O)[nH]1	inactive: 14.7%	–
COCCn1c(SCC(=O)Nc2nc(C)cs2)nnc1C(C)C	inactive: 1.21%	–
CCc1nnc(NC(=O)CN2CCN(c3ccccc3F)CC2)s1	inactive: 2.44%	–
O=C1/C(=C/c2cccs2)CCC1C1CCCC1 (centres undefined)	inactive: 6%	–
COc1ccccc1N(CC(=O)NCCN1CCOCC1)S(=O)(=O)c1ccc(C)cc1	inactive: -7.59%	–
CC[n+]1ccc(C[n+]2ccccc2)c2ccccc21	inactive: 7.9%	–
Cc1ccc(CNS(=O)(=O)c2ccc(-n3cnnn3)c(C)c2)cc1	inactive: -1.36%	–
CSc1cccc(NC(=O)C2C3C=CC4(O3)C2C(=O)N(CCN2CCOCC2)C4C(=O)NC2CCCCC2)c1 (centres undefined)	inactive: 1.75%	–
CCn1c2ccc(F)cc2c2nnc(SCCN3CCCCC3)nc21	inactive: 3.41%	–
O=C(CN(C(=O)CCC(=O)Nc1nccs1)c1ccc2c(c1)OCO2)NCc1ccccc1	inactive: -8.63%	–
CCOc1cc(/C=C2\C(=O)N(CCc3ccc(OC)c(OC)c3)C(C)=C2C(=O)OC)ccc1O	inactive: 26.3%	–
CC(C)NC(=O)COC(=O)c1cccc(NS(=O)(=O)/C=C/c2ccccc2)c1	inactive: 19.5%	–
COc1ccc2nc(/C=N/NC(=O)[C@H](CCSC)NC(=O)OC(C)(C)C)ccc2c1	inactive: 23.3%	–
